Assay results from the supplement of paper PMC4967469.
Lines with a small IC50 respond at low doses; a fit beyond the top or the lowest dose is shown as a bound at that dose. AUC is the area under the same curve over the 256-fold range up to the top dose, as a fraction; values near 1 show little effect. For part of these data: Where the top dose is marked as inferred, it is not printed in the source and was worked back from the curve model.

How the values were obtained:
Experiment in all cases: Viability of human cancer cell lines after 72 h of drug (GDSC screen)
[1] = compound: CC(=O)Nc1cccc(-n2c(=O)n(C3CC3)c(=O)c3c(Nc4ccc(I)cc4F)n(C)c(=O)c(C)c32)c1 [Trametinib]; conditions: top dose 1 µM
Protocol: (§1)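 Human cancer cell lines in 384-well plates, medium with 10% serum, drug for 72 h over a 256-fold dose range (nine 2-fold or five 4-fold steps up to the top dose). Adherent lines were fixed and stained with the nucleic acid dye Syto60, suspension lines read with resazurin; signal relative to control wells, capped at 0 and 100%. One two-parameter sigmoid per drug and line, fitted in a mixed model over all curves with the slope shared within a line.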

[2] = compound: CCN1CCN(Cc2ccc(NC(=O)c3ccc(C)c(/C=C/c4cnc5[nH]ccc5c4OC)c3)cc2C(F)(F)F)CC1 [HG-6-64-1]; conditions: top dose 5.12 µM; top dose inferred
Protocol: as §1

[3] = compound: CCNC(=O)C[C@@H]1N=C(c2ccc(Cl)cc2)c2cc(OC)ccc2-n2c(C)nnc21 [I-BET-762]; conditions: top dose 20 µM; top dose inferred
Protocol: as §1

[4] = compound: CCc1cncnc1N1CCN(Cc2nc3ccc(C(F)(F)F)cc3[nH]2)CC1 [PF-4708671]; conditions: top dose 10 µM; top dose inferred
Protocol: as §1

[5] = compound: COc1cc2nccc(Oc3ccc(NC(=O)Nc4cc(C)on4)c(Cl)c3)c2cc1OC [AV-951]; conditions: top dose 0.128 µM; top dose inferred
Protocol: as §1

[6] = compound: O=C(NC(COc1ccc2[nH]c(=O)[nH]c2c1)c1ccccc1)c1cccn(Cc2ccc(F)c(F)c2)c1=O [KIN001-244]; conditions: top dose 20 µM; top dose inferred
Protocol: as §1

Row | Cell Line | AUC [1] | IC50 [1] [µM] | AUC [2] | IC50 [2] [µM] | AUC [3] | IC50 [3] [µM] | AUC [4] | IC50 [4] [µM] | AUC [5] | IC50 [5] [µM] | AUC [6] | IC50 [6] [µM]
1 | MDA-MB-361 (breast, adherent) | 0.964 | > 1 | 0.865 | 4.45 | 0.84 | 13.6 | 0.97 | > 10 | 0.986 | > 0.128 | 0.921 | > 20
2 | MDA-MB-436 (breast, adherent) | 0.776 | 0.507 | 0.865 | > 5.12 | 0.952 | > 20 | 0.971 | > 10 | 0.983 | > 0.128 | 0.856 | > 20
3 | MDA-MB-468 (breast, adherent) | 0.892 | > 1 | 0.945 | > 5.12 | 0.965 | > 20 | 0.972 | > 10 | 0.988 | > 0.128 | 0.83 | 11.9
4 | ME-180 (cervix, adherent) | 0.727 | 0.286 | 0.614 | 0.669 | 0.941 | > 20 | 0.969 | > 10 | 0.983 | > 0.128 | 0.809 | 11
5 | MEL-JUSO (melanoma, adherent) | 0.268 | 0.0124 | 0.58 | 0.544 | 0.974 | > 20 | 0.909 | > 10 | 0.96 | > 0.128 | 0.788 | 9.91
6 | MES-SA (uterus, adherent) | 0.968 | > 1 | 0.591 | 0.545 | 0.991 | > 20 | 0.992 | > 10 | 0.992 | > 0.128 | 0.99 | > 20
7 | MFE-280 (endometrium, adherent) | 0.947 | > 1 | 0.616 | 0.727 | 0.854 | > 20 | 0.974 | > 10 | 0.962 | > 0.128 | 0.734 | 7.09
8 | MFE-296 (endometrium, adherent) | 0.814 | 0.596 | 0.345 | 0.114 | 0.972 | > 20 | 0.978 | > 10 | 0.985 | > 0.128 | 0.968 | > 20
9 | MFE-319 (endometrium, adherent) | 0.744 | 0.304 | 0.643 | 0.786 | 0.987 | > 20 | 0.935 | > 10 | 0.989 | > 0.128 | 0.921 | > 20
10 | MHH-ES-1 (Ewing sarcoma, adherent) | 0.968 | > 1 | 0.662 | 0.896 | 0.82 | 11.3 | 0.97 | > 10 | 0.985 | > 0.128 | 0.727 | 5.48
11 | MIA-PaCa-2 (pancreas, adherent) | 0.364 | 0.0252 | 0.541 | 0.418 | 0.973 | > 20 | 0.962 | > 10 | 0.985 | > 0.128 | 0.978 | > 20
12 | ML-1 (thyroid, adherent) | 0.631 | 0.153 | 0.528 | 0.385 | 0.938 | > 20 | 0.973 | > 10 | 0.983 | > 0.128 | 0.913 | > 20
13 | MOG-G-CCM (glioma, adherent) | 0.889 | > 1 | 0.595 | 0.61 | 0.871 | > 20 | 0.983 | > 10 | 0.978 | > 0.128 | 0.746 | 7.25
14 | MOG-G-UVW (glioma, adherent) | 0.45 | 0.0459 | 0.829 | 3.07 | 0.712 | 4.86 | 0.986 | > 10 | 0.986 | > 0.128 | 0.927 | > 20
15 | MS751 (cervix, adherent) | 0.92 | > 1 | 0.961 | > 5.12 | 0.987 | > 20 | 0.99 | > 10 | 0.989 | > 0.128 | 0.958 | > 20
16 | Mewo (melanoma, adherent) | 0.362 | 0.024 | 0.971 | > 5.12 | 0.972 | > 20 | 0.973 | > 10 | 0.98 | > 0.128 | 0.966 | > 20
17 | NCI-H28 (mesothelioma, adherent) | 0.866 | > 1 | 0.685 | 1.26 | 0.977 | > 20 | 0.899 | > 10 | 0.975 | > 0.128 | 0.938 | > 20
18 | NCI-H196 (small cell lung carcinoma, adherent) | 0.987 | > 1 | 0.816 | 3 | 0.878 | > 20 | 0.976 | > 10 | 0.988 | > 0.128 | 0.89 | > 20
19 | NCI-H292 (lung adenocarcinoma, adherent) | 0.166 | 0.00456 | 0.697 | 1.3 | 0.826 | 15.7 | 0.899 | > 10 | 0.978 | > 0.128 | 0.807 | 13
20 | NCI-H358 (lung adenocarcinoma, adherent) | 0.473 | 0.0523 | 0.584 | 0.558 | 0.973 | > 20 | 0.979 | > 10 | 0.983 | > 0.128 | 0.85 | 17.8
